# Among all 200,000 compounds or so, about 4,500 (2.2%) were called active. The inconclusive results got no clear call from the source; some entries with a clear call stand among them for comparison. Calls come from the whole dose curve; as a rule, active = well fitted inhibition curve with a large enough effect; inconclusive = small, poorly fitted or top-dose-only effect, or effect the other way; inactive = flat fitted curve, though single readings scatter. Where the call is inconclusive, the potency comes from a doubtful curve fit.
# Target: Cruzipain (Trypanosoma cruzi) (UniProt P25779)
# Test: qHTS Assay for Promiscuous and Specific Inhibitors of Cruzain (without detergent); note: nearly all actives have a fitted effect of over 40% in size
# Conditions: purified cruzain, Z-FR-AMC fluorescence, no detergent
# Procedure, shortened: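 Detergent-free condition (0.00005% Triton X-100) in acetate buffer pH 5.5 with DTT. 1.5 nM enzyme and compound were pre-mixed 15 min, then 2 uM Z-FR-AMC substrate added; reaction progress from fluorescence change between first and third reads (60 s).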
# Potency is the fitted concentration of half-maximal effect; tags give direction and shape of the fitted curve.
# UniProt P25779, sequence (P25779 whole entry, looked up): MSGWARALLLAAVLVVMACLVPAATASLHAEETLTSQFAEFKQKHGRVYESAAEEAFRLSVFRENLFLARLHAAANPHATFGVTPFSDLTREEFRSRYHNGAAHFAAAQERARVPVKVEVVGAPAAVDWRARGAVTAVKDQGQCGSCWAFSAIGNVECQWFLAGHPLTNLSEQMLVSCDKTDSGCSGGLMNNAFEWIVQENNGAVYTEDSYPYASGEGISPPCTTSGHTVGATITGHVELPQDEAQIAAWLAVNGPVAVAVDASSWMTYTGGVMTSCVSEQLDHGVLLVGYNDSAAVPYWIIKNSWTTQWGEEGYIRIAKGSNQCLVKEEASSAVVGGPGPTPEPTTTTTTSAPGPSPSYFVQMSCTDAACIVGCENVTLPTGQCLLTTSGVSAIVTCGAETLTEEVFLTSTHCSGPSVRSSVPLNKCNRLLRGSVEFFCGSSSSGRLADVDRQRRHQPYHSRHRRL
row,Compound,Potency
1,Cc1ccc2c(c1)c1c(n2CC(O)Cn2c(C)nc3ccccc32)/C(=N\O)CCC1 (configuration not stated),"inconclusive: 1 µM [inhibitor, partial curve, poor fit]"
2,O=C(Cc1cccc2ccccc12)Nc1ccc(-c2cc3ccccc3oc2=O)cc1,"inconclusive: 3.98 µM [inhibitor, full curve]"
3,Cc1cccc(N=C2NC(=O)/C(=C\c3cccs3)S2)c1,active: 31.6 µM
4,CC1=CC(=C(C#N)c2nc3ccccc3s2)C=C(C)N1c1ccc(F)cc1F,active: 31.6 µM
5,O=C(NC(C(=O)N/N=C/c1c2ccccc2cc2ccccc12)c1n[nH]c(=O)c2ccccc12)c1ccccc1 (configuration not stated),active: 12.6 µM
6,CC(C)CC(COCc1cccc(C(F)(F)F)c1)N1CCN(C(=O)c2cccc(C(F)(F)F)c2)CCC1=O (configuration not stated),"inconclusive: 20 µM [activator, partial curve]"
7,Cc1nc2ccn(Cc3cccs3)c(=O)c2cc1C(=O)N1CCN(c2ccccc2F)CC1,"inconclusive: 39.8 µM [activator, single point]"
8,CCOc1nc2cccc(C(=O)OC(C)OC(=O)OC3CCCCC3)c2n1Cc1ccc(-c2ccccc2-c2nn[nH]n2)cc1 (configuration not stated),"inconclusive: 6.31 µM [activator, full curve]"
9,C#CCn1c(=NC(=O)c2ccc(Cl)s2)sc2cccc(OC)c21,"inconclusive: 39.8 µM [inhibitor, single point]"
10,Cc1ccccc1OCC(=O)OCC(=O)c1ccc(OCc2ccccc2)cc1,"inconclusive: 15.8 µM [inhibitor, partial curve]"
11,COc1ccccc1NC(=O)c1ccc(CN2C(=O)C(C)=C(c3ccc(C)c(C)c3)S2(=O)=O)cc1,active: 31.6 µM
12,COc1ccc(N2CCN(C(=O)CSc3nnc4c(C)cc5ccc(C)c(C)c5n34)CC2)cc1,"inconclusive: 39.8 µM [activator, single point]"
13,O=C1C(Cl)=C(NCCN2CCOCC2)C(=O)c2ncccc21,"inconclusive: 25.1 µM [inhibitor, single point]"
14,O=C(N/N=C/c1ccc(O)cc1)/C(=C/c1ccc([N+](=O)[O-])cc1)NC(=O)c1ccccc1,"inconclusive: 31.6 µM [inhibitor, single point]"
15,CCSc1nc2cc(OC)c(OC)cc2c(=O)n1CCc1ccccc1,"inconclusive: 39.8 µM [activator, single point]"
16,CC1(c2ccccc2)CC(C)(C)N(C(=O)c2cccc(Cl)c2)c2ccccc21 (configuration not stated),"inconclusive: 25.1 µM [inhibitor, single point]"
17,Cn1c(=O)[nH]c(=O)c2c1nc(CN1CCN(c3cccc(Cl)c3)CC1)n2Cc1ccccc1Cl,"inconclusive: 31.6 µM [activator, single point]"

# Source: PubChem BioAssay AID1476 (National Center for Advancing Translational Sciences (NCATS), 2009)
